Read-outs that look alike come from different tables or passages of the source.
Tests used:
Loucy cells = assay: CellTiter-Glo cell viability assay, Loucy; assay type: cell-based; details: 72 h, 3 days, average of three replicates
Description: (§1) Cell viability assays were performed using CellTiter-Glo (Promega). Cells were grown in RPMI-10% FBS medium. 600 cells per well were seeded in a 96-well plate and then treated with eight doses of each compound in 3-fold dilution steps ranging from 10 um to 0.0046 uM for 3 days. Wells were imaged using a luminometer. IC50 were determined using Prism software. Data was normalized to a dimethyl sulfoxide (DMSO)-only control.

PI3K-β = PI3K-β (Homo sapiens (Human), UniProt P42338); assay: ADAPTA kinase assay, PI3K-β; assay type: biochemical; details: for IC50: ADAPTA assay format, ATP at Km; for selectivity for PI3K-δ over PI3K-β: ratio of IC50s
Description: (§2) The enzymatic activities against PI3K-α, PI3K-β, PI3K-γ and PI3K-δ were tested in ADAPTA assays. Activity against […] were tested in Z′-Lyte assays. All assays were performed with ATP concentrations of Km for each kinase. BRD4_1 binding was tested using an AlphaScreen assay. All protocols are available from Life Technologies.
as §2, with “against PI3K-α, PI3K-γ and” for “against PI3K-α, PI3K-β, PI3K-γ and”, “assay. All the protocols are” for “assay. All protocols are”

MV4:11 cells = assay: CellTiter-Glo cell viability assay, MV4:11; assay type: cell-based; details: Homo sapiens, MV4-11, 72 h, 3 days, average of three replicates
Description: as §1

Jurkat cells = assay: CellTiter-Glo proliferation / cell viability assay, Jurkat; assay type: cell-based; details: Homo sapiens, 72 h, 3 days, average of three replicates
Description: (§3) Proliferation assays were conducted in Jurkat or MOLT4 cell lines using Cell Titer Glo as described in product manual.
as §1

PI3K-α = PI3K-α (Homo sapiens (Human), UniProt P42336); assay: ADAPTA kinase assay, PI3K-α; assay type: biochemical; details: for IC50: ADAPTA assay format, ATP at Km; for selectivity for PI3K-δ over PI3K-α: ratio of IC50s
Description: as §2
as §2, with “against PI3K-α, PI3K-γ and” for “against PI3K-α, PI3K-β, PI3K-γ and”, “assay. All the protocols are” for “assay. All protocols are”

[1] = test system: PI3K-δ signaling (HMEC expressing CA-p110δ); assay: PI3K cellular signaling assay in isogenic HMEC lines (Western blot); assay type: cell-based; details: 10 nM concentration, FIG. 4C
Description: HMEC derivative cell lines were serum-starved for 3 hours, then treated with the indicated compounds at 0.01 μM, 0.1 μM, or 1 μM for 1 h. Cell lysates were prepared and subjected to Western blot assays with the indicated antibodies. Du, Duvelisib; Id, Idelalisib.
PI3K cellular signaling assays were performed as previously described (Reference 18).
HMEC derivative cells were cultured as described previously (Ni J, Liu Q, Xie S, et al. Functional characterization of an isoform-selective inhibitor of PI3K-p110beta as a potential anticancer agent. Cancer discovery. 2012; 2(5):425-433).
Western blot analysis was performed as previously described (Reference 1). Anti-phospho-AKT (Thr308) (#4056), anti-phospho-AKT (Ser473) (#4060), anti-AKT (#9272), anti-phospho-S6 ribosomal protein (Ser235/236) (#2211), anti-S6 ribosomal protein (#2217) antibodies were all from Cell Signaling Technology (Hanover, Mass.), and anti-α-tubulin antibody was from Sigma (Rockford, Ill.).

Aurora A = Aurora A (Homo sapiens (Human), UniProt O14965); assay: Z'-LYTE kinase assay, Aurora A; assay type: biochemical; details: for IC50: Z'LYTE assay format, ATP at Km; for selectivity over Aurora A: ratio of IC50s
Description: The enzymatic activities against PI3K-α, PI3K-β, PI3K-γ and PI3K-δ were tested in ADAPTA assays. […] All assays were performed with ATP concentrations of Km for each kinase. BRD4_1 binding was tested using an AlphaScreen assay. All protocols are available from Life Technologies.
The enzymatic activities against PI3K-α, PI3K-γ and PI3K-δ were tested in ADAPTA assays. […] All assays were performed with ATP concentrations of Km for each kinase. BRD4_1 binding was tested using an AlphaScreen assay. All the protocols are available from Life Technologies.

Molm14 cells = assay: CellTiter-Glo cell viability assay, Molm14; assay type: cell-based; details: Homo sapiens, MOLM-14, 72 h, 3 days, average of three replicates
Description: as §1

human kinome = assay: KINOMEscan kinome profiling; assay type: binding; details: for selectivity score S10: KINOMEscan at 1 μM compound concentration
Description: S10 was calculated from KINOMEscan data according to the formula;
Kinome profiling was performed using KinomeSCAN at compound concentration of 1 μM. Protocols are available from DiscovRX.

[2] = test system: patient-derived primary CLL cells; assay: CellTiter-Glo cell viability assay, patient-derived primary CLL cells; assay type: cell-based; details: Homo sapiens
Description: The CellTiter-Glo assay (Promega) was used to determine the viability of cells from chronic lymphocytic leukemia (CLL) patients at baseline (primary human patient derived CLL cells), upon IgM stimulation, and after drug treatment. IgM stimulation was conducted using AffiniPure F(ab′)2 Fragment Goat Anti-Human IgM (Jackson ImmunoResearch). Cell viability results after drug treatment are presented in FIG. 7A (IgM-stimulated cells) and FIG. 7B (PBS control).

MOLT4 cells = assay: CellTiter-Glo proliferation / cell viability assay, MOLT4; assay type: cell-based; details: Homo sapiens
Description: as §3, §1

Aurora B = Aurora B (Homo sapiens (Human), UniProt Q96GD4); assay: Z'-LYTE kinase assay, Aurora B; assay type: biochemical; details: for IC50: Z'LYTE assay format, ATP at Km; for selectivity over Aurora B: ratio of IC50s
Description: as §2
as §2, with “against PI3K-α, PI3K-γ and” for “against PI3K-α, PI3K-β, PI3K-γ and”, “assay. All the protocols are” for “assay. All protocols are”

BRD4_1 = BRD4_1 (Homo sapiens (Human), UniProt O60885); assay: BRD4_1 AlphaScreen binding assay
Description: as §2
as §2, with “against PI3K-α, PI3K-γ and” for “against PI3K-α, PI3K-β, PI3K-γ and”, “assay. All the protocols are” for “assay. All protocols are”

PI3K-δ = PI3K-δ (Homo sapiens (Human), UniProt O00329); assay: LCMS/MS cysteine labeling experiment with purified PI3K-δ protein
Text: Covalent inhibitors have been reported for PI3K-α that target a non-conserved cysteine unique to this isoform (Reference 14). […] Therefore we sought to remove this reactive functionality from our compounds, whilst maintaining on-target potency and kinome selectivity. Compounds containing an un-substituted sulfonamide nitrogen are equipotent against PI3K-β/γ and AuroraA/B. This holds in the context of both methylated and unmethylated core scaffold (Compounds 14, 16, 17). It has been shown that ortho-substitution adjacent to the hinge-binding motif can remove AuroraA/B activity from this scaffold (Reference 12). […] Gratifyingly compound 9; the propyl-amide analog of the initial hit, and compound 12 both maintained potent inhibition of PI3K-δ/γ.

[3] = MOLT-4, 72 h, cell viability, 3 days, average of three replicates, read-out: IC50 Molt4

UniProt P42336, sequence (P42336 whole entry): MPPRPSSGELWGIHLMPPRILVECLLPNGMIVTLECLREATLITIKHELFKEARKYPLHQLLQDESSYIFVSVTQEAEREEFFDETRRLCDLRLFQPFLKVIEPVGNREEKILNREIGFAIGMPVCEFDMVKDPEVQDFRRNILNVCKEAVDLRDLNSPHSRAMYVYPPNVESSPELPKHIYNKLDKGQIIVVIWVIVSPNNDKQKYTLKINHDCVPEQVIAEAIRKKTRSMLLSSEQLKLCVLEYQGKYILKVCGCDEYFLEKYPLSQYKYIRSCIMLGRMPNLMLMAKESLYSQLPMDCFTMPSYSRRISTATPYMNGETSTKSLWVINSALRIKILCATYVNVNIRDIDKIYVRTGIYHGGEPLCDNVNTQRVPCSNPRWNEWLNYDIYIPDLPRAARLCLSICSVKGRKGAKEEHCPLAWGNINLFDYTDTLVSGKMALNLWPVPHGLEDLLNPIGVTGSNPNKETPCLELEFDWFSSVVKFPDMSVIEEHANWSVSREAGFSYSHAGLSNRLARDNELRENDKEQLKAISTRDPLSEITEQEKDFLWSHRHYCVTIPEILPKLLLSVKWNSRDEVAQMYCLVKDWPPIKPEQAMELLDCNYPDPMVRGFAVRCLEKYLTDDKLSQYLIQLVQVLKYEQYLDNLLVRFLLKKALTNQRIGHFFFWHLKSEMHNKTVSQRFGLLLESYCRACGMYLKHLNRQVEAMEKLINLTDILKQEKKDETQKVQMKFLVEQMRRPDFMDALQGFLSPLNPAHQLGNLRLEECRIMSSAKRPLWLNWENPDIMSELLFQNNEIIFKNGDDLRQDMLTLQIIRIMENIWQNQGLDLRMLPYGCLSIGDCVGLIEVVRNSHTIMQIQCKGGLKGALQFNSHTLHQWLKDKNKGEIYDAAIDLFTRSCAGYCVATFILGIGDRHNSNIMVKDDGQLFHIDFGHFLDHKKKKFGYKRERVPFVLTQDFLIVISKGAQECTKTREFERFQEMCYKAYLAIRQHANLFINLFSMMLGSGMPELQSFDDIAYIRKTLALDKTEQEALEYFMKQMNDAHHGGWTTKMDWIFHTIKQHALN
UniProt P42336, sequence (P27986 whole entry partner): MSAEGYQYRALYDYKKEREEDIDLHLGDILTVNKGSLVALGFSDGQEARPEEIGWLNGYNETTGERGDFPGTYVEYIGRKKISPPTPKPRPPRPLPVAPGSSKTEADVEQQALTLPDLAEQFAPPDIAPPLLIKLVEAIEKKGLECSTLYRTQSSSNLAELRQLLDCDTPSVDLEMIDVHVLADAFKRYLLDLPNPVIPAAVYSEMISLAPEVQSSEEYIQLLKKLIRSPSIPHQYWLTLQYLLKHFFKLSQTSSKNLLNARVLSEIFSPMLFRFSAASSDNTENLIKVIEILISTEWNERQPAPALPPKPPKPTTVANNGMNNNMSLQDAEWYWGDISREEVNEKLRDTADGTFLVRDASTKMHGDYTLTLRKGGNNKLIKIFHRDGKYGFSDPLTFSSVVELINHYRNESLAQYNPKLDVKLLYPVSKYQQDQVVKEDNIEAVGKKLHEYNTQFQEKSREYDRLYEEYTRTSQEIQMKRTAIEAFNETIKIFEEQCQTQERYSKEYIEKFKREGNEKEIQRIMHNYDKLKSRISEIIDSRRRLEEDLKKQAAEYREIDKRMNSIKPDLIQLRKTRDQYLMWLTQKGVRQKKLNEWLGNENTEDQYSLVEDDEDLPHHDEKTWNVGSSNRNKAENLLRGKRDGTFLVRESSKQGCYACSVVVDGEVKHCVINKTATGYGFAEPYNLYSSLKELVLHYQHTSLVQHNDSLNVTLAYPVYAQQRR
UniProt O14965, sequence (O14965 whole entry): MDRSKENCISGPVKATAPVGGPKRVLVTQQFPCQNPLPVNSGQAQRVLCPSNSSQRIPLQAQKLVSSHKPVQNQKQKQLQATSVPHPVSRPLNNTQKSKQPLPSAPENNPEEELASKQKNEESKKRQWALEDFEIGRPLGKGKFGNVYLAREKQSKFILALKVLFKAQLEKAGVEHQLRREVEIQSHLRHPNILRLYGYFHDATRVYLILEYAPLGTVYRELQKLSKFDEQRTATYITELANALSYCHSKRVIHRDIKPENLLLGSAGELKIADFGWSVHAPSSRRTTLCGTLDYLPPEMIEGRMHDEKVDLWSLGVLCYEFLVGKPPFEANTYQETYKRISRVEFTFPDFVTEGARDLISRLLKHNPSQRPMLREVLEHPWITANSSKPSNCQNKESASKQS
UniProt Q96GD4, sequence (Q96GD4 whole entry): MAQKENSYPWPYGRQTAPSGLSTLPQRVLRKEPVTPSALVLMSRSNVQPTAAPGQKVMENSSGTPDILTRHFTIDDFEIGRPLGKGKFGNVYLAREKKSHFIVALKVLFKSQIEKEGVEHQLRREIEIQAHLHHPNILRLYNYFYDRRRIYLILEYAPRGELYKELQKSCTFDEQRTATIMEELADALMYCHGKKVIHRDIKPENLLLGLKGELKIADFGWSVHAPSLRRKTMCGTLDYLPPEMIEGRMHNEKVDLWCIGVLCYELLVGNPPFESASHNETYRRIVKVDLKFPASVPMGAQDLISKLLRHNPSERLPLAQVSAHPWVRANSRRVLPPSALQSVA
UniProt P42338, sequence (P42338 whole entry): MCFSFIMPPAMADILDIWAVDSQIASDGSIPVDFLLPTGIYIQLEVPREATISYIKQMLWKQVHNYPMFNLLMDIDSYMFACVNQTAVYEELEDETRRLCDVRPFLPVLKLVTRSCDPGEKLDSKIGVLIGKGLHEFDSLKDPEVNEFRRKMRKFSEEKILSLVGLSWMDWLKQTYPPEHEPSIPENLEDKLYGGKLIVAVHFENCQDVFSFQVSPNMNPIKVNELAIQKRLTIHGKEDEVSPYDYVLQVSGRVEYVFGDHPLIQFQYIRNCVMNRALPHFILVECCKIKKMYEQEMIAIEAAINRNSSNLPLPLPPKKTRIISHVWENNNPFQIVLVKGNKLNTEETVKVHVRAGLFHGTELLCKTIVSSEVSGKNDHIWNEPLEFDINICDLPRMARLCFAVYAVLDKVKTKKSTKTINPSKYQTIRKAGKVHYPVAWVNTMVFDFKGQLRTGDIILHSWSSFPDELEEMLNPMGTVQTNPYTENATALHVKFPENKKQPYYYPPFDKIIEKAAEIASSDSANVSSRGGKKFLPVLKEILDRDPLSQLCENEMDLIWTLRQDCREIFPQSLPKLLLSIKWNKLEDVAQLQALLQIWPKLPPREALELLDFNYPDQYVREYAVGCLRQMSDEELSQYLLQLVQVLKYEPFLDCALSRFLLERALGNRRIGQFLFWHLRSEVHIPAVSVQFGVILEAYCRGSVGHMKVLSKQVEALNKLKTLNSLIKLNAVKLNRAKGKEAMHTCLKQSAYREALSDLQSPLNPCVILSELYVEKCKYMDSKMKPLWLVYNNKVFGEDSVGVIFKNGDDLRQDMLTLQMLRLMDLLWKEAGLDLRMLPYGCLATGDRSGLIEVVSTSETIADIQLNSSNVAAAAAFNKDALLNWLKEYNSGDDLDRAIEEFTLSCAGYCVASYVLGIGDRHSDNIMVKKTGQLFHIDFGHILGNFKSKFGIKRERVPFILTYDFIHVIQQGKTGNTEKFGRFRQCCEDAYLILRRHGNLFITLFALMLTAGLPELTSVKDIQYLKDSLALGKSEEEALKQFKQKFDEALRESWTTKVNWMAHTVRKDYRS
UniProt P42338, sequence (P27986 whole entry partner): as the sequence (P27986 whole entry partner) above

| IC50 (PI3K-β) | selectivity for PI3K-δ over PI3K-β (PI3K-β) | IC50 (MV4:11 cells) | IC50 (Jurkat cells) | IC50 (PI3K-α) | selectivity for PI3K-δ over PI3K-α (PI3K-α) | IC50 (Aurora A) | selectivity over Aurora A (Aurora A) | IC50 (Molm14 cells) | IC50 (MOLT4 cells; [3]) | IC50 (Aurora B) | selectivity over Aurora B (Aurora B) | IC50 (BRD4_1) | SMILES | IC50 (Loucy cells) | inhibition of PI3K-δ signaling (AKT and S6RP phosphorylation) [1] | selectivity score S10 (human kinome) | IC50 [2] | further results |
| --- | --- | --- | --- | --- | --- | --- | --- | --- | --- | --- | --- | --- | --- | --- | --- | --- | --- | --- |
| 610 nM | 305 fold | 960 nM | 1600 nM | 70 nM | 35 fold | 110 nM | 55 fold | 610 nM | 1200 nM | 117 nM | 59 fold | 18800 nM | CCC(=O)N1CCN(S(=O)(=O)c2cccc(Nc3ncc4c(n3)N(C)c3ccc(C)cc3C(=O)N4C)c2)CC1 [Compound 9, 5,8,11-trimethyl-2-((3-((4-propionylpiperazin-1-yl)sulfonyl)phenyl)amino)-5,11-dihydro-6H-benzo[e]pyrimido[5,4-b][1,4]diazepin-6-one] | 720 nM | comparable inhibition of, and selectivity for, PI3K-δ signaling | 0.010 | 3000 nM | – |
| 4750 nM | 2262 fold | 620 nM | 1400 nM | 55 nM | 26 fold | 151 nM | 72 fold | 1000 nM | 1300 nM | 152 nM | 72 fold | 10800 nM | Cc1ccc2c(c1)C(=O)N(C)c1cnc(Nc3cccc(S(=O)(=O)N4CCC(O)CC4)c3)nc1N2C [Compound 12, 2-((3-((4-hydroxypiperidin-1-yl)sulfonyl)phenyl)amino)-5,8,11-trimethyl-5,11-dihydro-6H-benzo[e]pyrimido[5,4-b][1,4]diazepin-6-one] | 350 nM | comparable inhibition of, and selectivity for, PI3K-δ signaling | 0.008 | > 10000 nM | – |
| 544 nM | 272 fold | – | – | 53 nM | 26 fold | 59 nM | 30 fold | – | – | 120 nM | 60 fold | 6000 nM | C=CC(=O)N1CCN(S(=O)(=O)c2cccc(Nc3ncc4c(n3)N(C)c3ccc(C)cc3C(=O)N4C)c2)CC1 [Compound 1, 2-((3-((4-acryloylpiperazin-1-yl)sulfonyl)phenyl)amino)-5,8,11-trimethyl-5,11-dihydro-6H-benzo[e]pyrimido[5,4-b][1,4]diazepin-6-one] | – | – | 0.013 | – | non-specific cysteine labeling of PI3K-δ (PI3K-δ): no non-specific cysteine labeling was occurring; inhibition of other targets in the PI3K pathway (Akt, DNA-PK, BTK, mTOR) (human kinome; KINOMEscan at 1 μM): not inhibited; inhibitory effects on PIP5K2C (PIP4K-γ) (human kinome; KINOMEscan at 1 μM): some inhibitory effects; IC50 (MOLT4 cells; MOLT-4, T-ALL cell line, screening campaign, read-out: IC50 MOLT4 cells (antiproliferative activity)): 33 nM |

Source: patent US11155556B2, “Pyrimido-diazepinone kinase scaffold compounds and methods for treating PI3K-mediated disorders” (DANA-FARBER CANCER INSTITUTE, INC., priority 2016, dated 2021)
